Reference: PubChem BioAssay (Tox21)
Several values for one entry are separate records, joined by “and”; a condition that tells them apart may be missing. Equal entries are not always repeated. The shares of active, inactive and inconclusive entries below differ from those in the screen. For some of these results: Potencies beside an inconclusive call are fits to weak or partial responses and may not hold up. Activity calls are given as the source filed them. Unless noted, calls follow the shape of the dose curve; as a rule, active = well fitted curve in the direction sought with a large enough effect in the repeat runs; inconclusive = weak or mixed curves; inactive = no such curve, though single readings can be large; an effect the other way counts as inactive or inconclusive.

Tests used:
[1] = qHTS assay to identify aromatase inhibitors - cell viability counter screen (AID 743084); conditions: MCF-7 aro ERE viability, CellTiter-Fluor, 24 h; activity change, negative = cytotoxicity: at 70.3 µM (top of the series);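 also: cells stimulated with testosterone during compound exposure; potency is read from the fitted curve at half-maximal effect; nearly all actives have a fitted effect of over 55% in size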
[2] = qHTS assay to identify small molecule that activate the aryl hydrocarbon receptor (AhR) signaling pathway - cell viability counter screen (AID 743086); also: nearly all actives have a fitted effect of over 45% in size; also: potency is read from the fitted curve at half-maximal effect
Outline: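 Cytotoxicity counter screen: CellTiter-Fluor signal (30 min, 37 C) in 4000 HepG2 cells/well carrying the DRE-luciferase reporter, following 24 h compound exposure at 37 C.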

[3] = target: Peroxisome proliferator-activated receptor gamma (Homo sapiens) (UniProt P37231); assay: qHTS assay to identify small molecule agonists of the peroxisome proliferator-activated receptor gamma (PPARg) signaling pathway (AID 743094; active = well fitted activation curve with a large enough effect in the signal ratio in the repeat runs, not every such curve was filed as active; inconclusive = weak or mixed curves, or effect the other way; inactive = no such curve, though single readings can be large or run the other way; the % refers to the signal ratio; also: potency is read from the fitted curve at half-maximal effect); conditions: HEK293H PPARg-UAS-bla, beta-lactamase FRET ratio, 17 h; activation: at 57 µM (top of the series) unless noted
Outline: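 Beta-lactamase FRET fluorescence was the read-out after a 1 h room-temperature substrate step, following 17 h compound treatment at 37C of HEK293H cells expressing a UAS-driven bla reporter responsive to PPARg.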

[4] = target: Peroxisome proliferator-activated receptor gamma (Homo sapiens) (UniProt P37231); assay: qHTS assay to identify small molecule antagonists of the peroxisome proliferator-activated receptor gamma (PPARg) signaling pathway (AID 743191; calls by dose curve; also: nearly all actives have a fitted effect of over 30% in size; also: potency is read from the fitted curve at half-maximal effect); conditions: HEK293H PPARg-UAS-bla, beta-lactamase ratio, antagonist, 17 h; ratio activity, negative = inhibition: at 62.6 µM (top of the series) unless noted
Outline: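 Beta-lactamase reporter under UAS control in HEK293H PPARg-bla cells; compound treatment 17 h at 37C. Read-out: fluorescence intensity after 1 h room-temperature incubation with LiveBLAzer B/G FRET substrate.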

[5] = qHTS assay for small molecule agonists of the antioxidant response element (ARE) signaling pathway (AID 743202; active = well fitted activation curve with a large enough effect in the signal ratio in the repeat runs, not every such curve was filed as active; inconclusive = weak or mixed curves, or effect the other way; inactive = no such curve, though single readings can be large or run the other way; the % refers to the signal ratio; also: potency is read from the fitted curve at half-maximal effect); conditions: HepG2 ARE-bla reporter, beta-lactamase FRET, 16 h; activation: at 73.3 µM (top of the series) unless noted
Outline: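 Quantitative high-throughput format in HepG2 cells bearing an integrated ARE-beta-lactamase reporter. Compound exposure lasted 16 h at 37 C, and fluorescence was read 2 h after adding LiveBLAzer B/G substrate at room temperature.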

[6] = qHTS assay for small molecule activators of the heat shock response signaling pathway - cell viability counter screen (AID 743209); conditions: HSE-bla HeLa viability, CellTiter-Glo luminescence, 5 h; activity change, negative = cytotoxicity: at 62.6 µM (top of the series); also: potency is read from the fitted curve at half-maximal effect; nearly all actives have a fitted effect of over 50% in size
Outline: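 Luminescence from CellTiter-Glo, added after the beta-lactamase FRET read, gave the viability signal. Cells were HSE-bla HeLa treated with DMSO-dissolved compounds for 5 h at 37 C following overnight plating.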

[7] = qHTS assay for small molecule activators of the heat shock response signaling pathway (AID 743210; active = well fitted activation curve with a large enough effect in the signal ratio in the repeat runs, with a control signal flat, not every such curve was filed as active; inconclusive = weak or mixed curves; the % refers to the signal ratio; also: potency is read from the fitted curve at half-maximal effect); conditions: HeLa HSE-bla reporter, beta-lactamase ratio, 5 h; activation: at 62.6 µM (top of the series)
Outline: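 HeLa HSE-bla cells, overnight plating; cpd in DMSO 5 h, 37 C; LiveBLAzer B/G FRET substrate 2.5 h RT; fluorescence intensity read.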

[8] = qHTS assay to identify small molecule agonists of the peroxisome proliferator-activated receptor delta (PPARd) signaling pathway - cell viability counter screen (AID 743211); conditions: PPARd-bla HEK293H viability, CellTiter-Glo luminescence, 17 h; activity change, negative = cytotoxicity: at 62.6 µM (top of the series); also: potency is read from the fitted curve at half-maximal effect; nearly all actives have a fitted effect of over 55% in size
Outline: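 Following 5 h plating at 37 C and 5% CO2, PPARd UAS-bla HEK293H cells took up test compounds for 17 h. Viability was quantified by luminescence 30 min after CellTiter-Glo addition at room temperature.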

[9] = target: Peroxisome proliferator-activated receptor delta (Homo sapiens) (UniProt Q03181); assay: qHTS assay to identify small molecule agonists of the peroxisome proliferator-activated receptor delta (PPARd) signaling pathway (AID 743212; calls by dose curve; also: potency is read from the fitted curve at half-maximal effect; as to activation: % is scaled to controls: 0 for no effect and ±100 for the full control effect); conditions: HEK293H PPARd-UAS-bla, beta-lactamase FRET ratio, 17 h; activation: at 62.6 µM (top of the series) unless noted
Outline: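 HEK293H PPARd-bla cells; 5 h preincubation 37 C/5% CO2; compound (DMSO) 37 C; LiveBLAzer B/G FRET substrate 2 h RT; fluorescence intensity.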

[10] = qHTS assay to identify small molecule antagonists of the peroxisome proliferator-activated receptor delta (PPARd) signaling pathway - cell viability counter screen (AID 743213); conditions: PPARd-bla HEK293H viability, CellTiter-Glo luminescence, 17 h; viability change, negative = cytotoxic: at 62 µM (top of the series) unless noted; also: potency is read from the fitted curve at half-maximal effect; nearly all actives have a fitted effect of over 50% in size
Outline: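 In this counter screen, HEK293H cells carrying a UAS-beta-lactamase reporter are co-treated with test compounds and 300 nM L165041 (final) for 17 h at 37 C; cell viability is quantified by CellTiter-Glo luminescence.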

[11] = target: Peroxisome proliferator-activated receptor delta (Homo sapiens) (UniProt Q03181); assay: qHTS assay to identify small molecule antagonists of the peroxisome proliferator-activated receptor delta (PPARd) signaling pathway (AID 743215; active = well fitted inhibition curve with a large enough effect in the signal ratio in the repeat runs, not every such curve was filed as active; inconclusive = weak or mixed curves, or effect the other way; inactive = no such curve, though single readings can be large or run the other way; the % refers to the signal ratio;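 also: cells stimulated with agonist L165041 at 300 nM final during compound exposure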; also: potency is read from the fitted curve at half-maximal effect; as to ratio activity, negative = inhibition: % is scaled to controls: 0 for no effect and ±100 for the full control effect); conditions: HEK293H PPARd-UAS-bla, beta-lactamase FRET ratio, antagonist, 17 h; ratio activity, negative = inhibition: at 62 µM (top of the series) unless noted
Outline: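 Read-out is beta-lactamase FRET fluorescence, measured 2 h after substrate addition at room temperature. Beforehand, UAS-bla HEK293H cells carrying the PPARd reporter were exposed to compounds with L165041 at 300 nM final for 17 h at 37 C.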

[12] = qHTS assay to identify small molecule agonists of the farnesoid-X-receptor (FXR) signaling pathway - cell viability counter screen (AID 743218); conditions: FXR-bla HEK293T viability, CellTiter-Glo luminescence, 16 h; viability change, negative = cytotoxic: at 62.6 µM (top of the series) unless noted; also: nearly all actives have a fitted effect of over 45% in size; also: potency is read from the fitted curve at half-maximal effect; as to viability change, negative = cytotoxic: % is scaled to controls: 0 for no effect and ±100 for the full control effect
Outline: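 HEK 293T FXR-bla cells; 5 h pre-incubation, 16 h compound exposure at 37 C; LiveBLAzer substrate 2 h RT, then CellTiter-Glo 30 min RT, luminescence.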

[13] = qHTS assay to identify small molecule antagonists of the peroxisome proliferator-activated receptor gamma (PPARg) signaling pathway - cell viability counter screen (AID 743194); conditions: PPARg-bla HEK293H viability, CellTiter-Glo luminescence, 17 h, co-treated with 50 nM rosiglitazone; activity change, negative = cytotoxicity: at 62.6 µM (top of the series); also: potency is read from the fitted curve at half-maximal effect; nearly all actives have a fitted effect of over 55% in size
Outline: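 Viability was measured as CellTiter-Glo luminescence in GeneBLAzer PPARg UAS-bla HEK293H cells. These cells had been exposed 17 h at 37 C to compounds together with rosiglitazone at 50 nM final, with the beta-lactamase readout taken in the same wells.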

[14] = target: Bile acid receptor (Homo sapiens) (UniProt Q96RI1); assay: qHTS assay to identify small molecule antagonists of the farnesoid-X-receptor (FXR) signaling pathway (AID 743217; active = well fitted inhibition curve with a large enough effect in the signal ratio in the repeat runs, not every such curve was filed as active; inconclusive = weak or mixed curves, or effect the other way; inactive = no such curve, though single readings can be large or run the other way; the % refers to the signal ratio; also: potency is read from the fitted curve at half-maximal effect); conditions: HEK293T FXR-UAS-bla, beta-lactamase ratio, CDCA-stimulated, 16 h; activity change, negative = inhibition: at 62.6 µM (top of the series) unless noted
Outline: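 HEK 293T FXR-UAS-bla, 5000 cells/well; compound + CDCA 50 uM final; 16 h, 37 °C; B/G FRET substrate 2 h RT; fluorescence.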

[15] = target: Bile acid receptor (Homo sapiens) (UniProt Q96RI1); assay: qHTS assay to identify small molecule agonists of the farnesoid-X-receptor (FXR) signaling pathway (AID 743220; active = well fitted activation curve with a large enough effect in the signal ratio in the repeat runs, not every such curve was filed as active; inconclusive = weak or mixed curves, or effect the other way; the % refers to the signal ratio; also: % is scaled to controls: 0 for no effect and ±100 for the full control effect); conditions: HEK293T FXR-UAS-bla, beta-lactamase FRET ratio, 16 h; activation: at 62.6 µM (top of the series) unless noted
Outline: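 Beta-lactamase reporter under UAS control in GeneBLAzer FXR HEK 293T cells (5000/well) measured with LiveBLAzer FRET substrate after 2 h at room temperature. Compound exposure lasted 16 h at 37C.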

[16] = qHTS assay to identify small molecule antagonists of the farnesoid-X-receptor (FXR) signaling pathway - cell viability counter screen (AID 743221; active = well fitted cell-killing curve with a large enough effect in the repeat runs, not every such curve was filed as active; inconclusive = weak or mixed curves, or effect the other way; inactive = no such curve, though single readings can be large or run the other way; also: potency is read from the fitted curve at half-maximal effect; nearly all actives have a fitted effect of over 50% in size); conditions: FXR-bla HEK293T viability, CellTiter-Glo luminescence, 16 h; activity change, negative = cytotoxicity: at 62.6 µM (top of the series)
Outline: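 Compound effects on cell number were measured as CellTiter-Glo luminescence in HEK 293T cells expressing FXR-UAS-bla, after 16 h at 37 C with 50 uM CDCA (final).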

[17] = target: Vitamin D3 receptor (Homo sapiens) (UniProt P11473); assay: qHTS assay to identify small molecule antagonists of the vitamin D receptor (VDR) signaling pathway (AID 743223; active = well fitted inhibition curve with a large enough effect in the signal ratio in the repeat runs, not every such curve was filed as active; inconclusive = weak or mixed curves, or effect the other way; inactive = no such curve, though single readings can be large or run the other way; the % refers to the signal ratio; also: potency is read from the fitted curve at half-maximal effect); conditions: VDR-UAS-bla HEK293T, beta-lactamase FRET ratio, 16 h; activity change, negative = inhibition: at 61 µM (top of the series) unless noted
Outline: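 Beta-lactamase activity in VDR-bla cells is measured by FRET substrate fluorescence (2 h, room temperature) after cells spend 16 h at 37C with test compound and 3 nM final 1alpha,25-dihydroxyvitamin D3.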

[18] = qHTS assay for small molecule agonists of the antioxidant response element (ARE) signaling pathway - cell viability counter screen (AID 743203; calls by dose curve; also: potency is read from the fitted curve at half-maximal effect; nearly all actives have a fitted effect of over 55% in size); conditions: ARE-bla HepG2 viability, CellTiter-Glo luminescence, 16 h; viability change, negative = cytotoxic: at 73.3 µM (top of the series)
Outline: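 HepG2 cells carrying ARE-driven beta-lactamase; 2,000 cells/well; 5 hrs plating; compound pinned from DMSO; 16 hrs 37C/5% CO2; CellTiter-Glo added; 30 min RT; luminescence.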

[19] = target: Vitamin D3 receptor (Homo sapiens) (UniProt P11473); assay: qHTS assay to identify small molecule agonists of the vitamin D receptor (VDR) signaling pathway (AID 743222; calls by dose curve; also: potency is read from the fitted curve at half-maximal effect); conditions: HEK293T VDR-UAS-bla, beta-lactamase FRET ratio, 16 h; activation: at 63.5 µM (top of the series) unless noted
Outline: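 VDR-bla cells, 2,000/well; 4 h preincubation 37C; cpd (DMSO) 16 h; LiveBLAzer B/G substrate 2 h RT; fluorescence intensity read.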
Tags tell the direction and shape of the fitted curve or compound fluorescence and quenching.

Sequence of UniProt Q96RI1 (Q96RI1 whole entry, looked up): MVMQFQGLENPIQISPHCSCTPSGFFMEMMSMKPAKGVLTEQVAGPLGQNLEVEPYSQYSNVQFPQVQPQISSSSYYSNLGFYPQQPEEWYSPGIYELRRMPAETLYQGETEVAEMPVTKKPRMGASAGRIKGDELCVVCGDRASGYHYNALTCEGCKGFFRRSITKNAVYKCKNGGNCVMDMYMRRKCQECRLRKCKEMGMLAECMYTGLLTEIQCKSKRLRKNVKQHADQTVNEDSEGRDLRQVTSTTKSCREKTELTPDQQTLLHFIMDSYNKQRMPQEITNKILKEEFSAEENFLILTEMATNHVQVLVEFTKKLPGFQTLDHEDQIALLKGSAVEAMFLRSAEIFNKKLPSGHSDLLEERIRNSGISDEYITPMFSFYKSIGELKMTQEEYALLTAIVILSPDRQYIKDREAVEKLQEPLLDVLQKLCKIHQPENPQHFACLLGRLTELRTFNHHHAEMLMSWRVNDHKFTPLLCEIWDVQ
Sequence of UniProt Q03181 (Q03181 whole entry, looked up): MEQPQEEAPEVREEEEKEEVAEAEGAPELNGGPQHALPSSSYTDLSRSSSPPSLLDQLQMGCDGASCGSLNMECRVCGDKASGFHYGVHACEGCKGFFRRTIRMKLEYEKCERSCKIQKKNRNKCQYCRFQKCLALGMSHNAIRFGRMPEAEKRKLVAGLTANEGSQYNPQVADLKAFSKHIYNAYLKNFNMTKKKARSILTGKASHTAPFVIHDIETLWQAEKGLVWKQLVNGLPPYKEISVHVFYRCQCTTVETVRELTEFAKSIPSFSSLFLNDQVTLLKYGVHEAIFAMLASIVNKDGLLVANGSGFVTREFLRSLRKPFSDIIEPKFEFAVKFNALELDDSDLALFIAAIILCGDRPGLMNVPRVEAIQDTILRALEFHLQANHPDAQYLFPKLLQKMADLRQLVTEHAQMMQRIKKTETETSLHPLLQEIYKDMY
Sequence of UniProt P37231 (P37231 whole entry, looked up): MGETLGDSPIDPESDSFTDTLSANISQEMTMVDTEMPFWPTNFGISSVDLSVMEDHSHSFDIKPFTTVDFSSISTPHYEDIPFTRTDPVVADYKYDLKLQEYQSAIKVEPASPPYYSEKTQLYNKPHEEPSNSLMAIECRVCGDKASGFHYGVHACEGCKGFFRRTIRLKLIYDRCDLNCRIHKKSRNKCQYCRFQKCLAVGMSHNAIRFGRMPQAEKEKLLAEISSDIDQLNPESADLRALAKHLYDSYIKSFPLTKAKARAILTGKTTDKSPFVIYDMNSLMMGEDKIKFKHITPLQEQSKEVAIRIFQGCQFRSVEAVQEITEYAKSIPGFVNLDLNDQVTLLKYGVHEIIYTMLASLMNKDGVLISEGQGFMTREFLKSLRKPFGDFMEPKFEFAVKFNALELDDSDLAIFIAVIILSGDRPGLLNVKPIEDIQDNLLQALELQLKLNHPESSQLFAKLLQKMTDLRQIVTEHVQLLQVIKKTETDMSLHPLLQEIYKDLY
Sequence of UniProt P11473 (P11473 whole entry, looked up): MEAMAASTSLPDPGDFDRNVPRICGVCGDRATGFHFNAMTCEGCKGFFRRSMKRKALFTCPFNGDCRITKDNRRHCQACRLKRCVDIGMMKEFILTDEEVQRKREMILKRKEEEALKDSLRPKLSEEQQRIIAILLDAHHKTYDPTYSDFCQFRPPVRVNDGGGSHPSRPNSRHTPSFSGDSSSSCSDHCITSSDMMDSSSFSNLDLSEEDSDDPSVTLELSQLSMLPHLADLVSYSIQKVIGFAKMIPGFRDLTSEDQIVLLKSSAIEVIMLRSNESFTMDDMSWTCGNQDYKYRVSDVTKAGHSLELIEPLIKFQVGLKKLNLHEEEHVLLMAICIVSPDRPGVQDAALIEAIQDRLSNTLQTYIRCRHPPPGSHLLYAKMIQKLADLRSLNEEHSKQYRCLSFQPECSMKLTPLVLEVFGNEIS

OCCN(CCO)c1nc(N2CCCCC2)c2nc(N(CCO)CCO)nc(N3CCCCC3)c2n1
inactive: Potency [12]
inconclusive: Potency [1] 9.44 µM [rising, full curve] | Potency [2] 9.44 µM [rising, full curve] | Potency [3] 23.9 µM [fluorescent, partial curve] | Potency [4] 13.3 µM [fluorescent, partial curve] | Potency [5] 26.6 µM [rising, partial curve] | Potency [6] 0.119 µM [cytotoxic, full curve, poor fit] | Potency [7] 20.3 µM [fluorescent] | Potency [8] 26.6 µM [cytotoxic, partial curve, poor fit] | Potency [9] 21.1 µM [rising, partial curve] | Potency [10] 0.531 µM [cytotoxic, full curve, poor fit] | Potency [11] 13.3 µM [fluorescent, partial curve]

Oc1ccc(Cl)cc1Sc1cc(Cl)ccc1O
inconclusive: Potency [1] 33.5 µM [cytotoxic, single point] and 17.2 µM [cytotoxic, full curve] | Potency [2] 33.5 µM [falling, single point] | Potency [6] 10.6 µM [cytotoxic, partial curve] | Potency [14] 48.9 µM and 15 µM [inhibitor, partial curve, poor fit] | activation [15] -0.102% | Potency [16] 33.5 µM [falling, single point] | Potency [17] 48.9 µM [partial curve]
active: Potency [13] 4.89 µM and 5.96 µM | Potency [8] 19.5 µM and 26.6 µM | Potency [12] 34.6 µM and 29.8 µM

O=C(N/N=C/c1ccc([N+](=O)[O-])o1)c1ccc(O)cc1
inconclusive: Potency [1] 12.7 µM [cytotoxic] | Potency [4] 21.1 µM [inhibitor, partial curve, poor fit] | Potency [13] 10.6 µM [cytotoxic, partial curve] | Potency [5] 13.3 µM [falling, partial curve] | activation [9] -0.147% | ratio activity, negative = inhibition [11] 5.12% | Potency [19] 37.6 µM [fluorescent, partial curve, poor fit]
active: Potency [2] 11.4 µM | Potency [18] 23.7 µM

N#CSc1ccc(N)c([N+](=O)[O-])c1
inconclusive: Potency [2] 30.8 µM [falling, partial curve] | Potency [3] 12.4 µM [activator, single point] | Potency [4] 62 µM [rising, partial curve, poor fit] | activation [5] 33.1% [at 94.8 µM] | Potency [9] 49.3 µM | Potency [11] 55.3 µM [single point] | Potency [14] 55.3 µM [inhibitor] | Potency [12] 62 µM [cytotoxic, single point] | Potency [16] 55.3 µM | activation [19] -15.4% [at 81.1 µM] | Potency [17] 55.3 µM
active: Potency [1] 38.8 µM | Potency [8] 55.3 µM | Potency [10] 49.3 µM

COc1cc(C(C)C)c2c(c1)S(=O)(=O)N(COc1cc(=O)n3cccc(OCCN4CCCCC4)c3n1)C2=O
inconclusive: Potency [1] 14.6 µM [cytotoxic, single point] | Potency [2] 16.4 µM [falling, single point] | ratio activity, negative = inhibition [4] -20.1% [at 29.1 µM] | activation [5] 68% [at 34.3 µM] | Potency [10] 0.233 µM [cytotoxic, full curve, poor fit] | activation [15] 2.3% [at 29.1 µM] | Potency [19] 10.4 µM [fluorescent] | Potency [17] 9.28 µM [fluorescent, partial curve]

CO[C@@H]1[C@H](OC(=O)/C=C/C=C/C=C/C=C/C(=O)O)CC[C@]2(CO2)[C@H]1[C@@]1(C)O[C@@H]1CC=C(C)C
active: Potency [12] 1.95 µM
inactive: Potency [2] | Potency [17]
inconclusive: Potency [1] 68.6 µM [cytotoxic, single point] | ratio activity, negative = inhibition [4] -2.97% | activation [7] 12.8% | Potency [8] 43.6 µM [cytotoxic, partial curve, poor fit] | Potency [16] 24.5 µM [falling, partial curve]
